Experimental data as given in paper PMC4336329 (PLoS ONE, 2015).
About 2,200 (0.71%) of roughly 310,000 compounds showed an effect of 50% or more. Effects have a minus sign here. The list shows a part of the results.

molecular target: human ether-à-go-go-related gene (hERG) potassium channel (human, UniProt Q12809); test: primary screen, population patch clamp on CHO cells stably expressing hERG
Sequence (Q12809 whole entry, looked up): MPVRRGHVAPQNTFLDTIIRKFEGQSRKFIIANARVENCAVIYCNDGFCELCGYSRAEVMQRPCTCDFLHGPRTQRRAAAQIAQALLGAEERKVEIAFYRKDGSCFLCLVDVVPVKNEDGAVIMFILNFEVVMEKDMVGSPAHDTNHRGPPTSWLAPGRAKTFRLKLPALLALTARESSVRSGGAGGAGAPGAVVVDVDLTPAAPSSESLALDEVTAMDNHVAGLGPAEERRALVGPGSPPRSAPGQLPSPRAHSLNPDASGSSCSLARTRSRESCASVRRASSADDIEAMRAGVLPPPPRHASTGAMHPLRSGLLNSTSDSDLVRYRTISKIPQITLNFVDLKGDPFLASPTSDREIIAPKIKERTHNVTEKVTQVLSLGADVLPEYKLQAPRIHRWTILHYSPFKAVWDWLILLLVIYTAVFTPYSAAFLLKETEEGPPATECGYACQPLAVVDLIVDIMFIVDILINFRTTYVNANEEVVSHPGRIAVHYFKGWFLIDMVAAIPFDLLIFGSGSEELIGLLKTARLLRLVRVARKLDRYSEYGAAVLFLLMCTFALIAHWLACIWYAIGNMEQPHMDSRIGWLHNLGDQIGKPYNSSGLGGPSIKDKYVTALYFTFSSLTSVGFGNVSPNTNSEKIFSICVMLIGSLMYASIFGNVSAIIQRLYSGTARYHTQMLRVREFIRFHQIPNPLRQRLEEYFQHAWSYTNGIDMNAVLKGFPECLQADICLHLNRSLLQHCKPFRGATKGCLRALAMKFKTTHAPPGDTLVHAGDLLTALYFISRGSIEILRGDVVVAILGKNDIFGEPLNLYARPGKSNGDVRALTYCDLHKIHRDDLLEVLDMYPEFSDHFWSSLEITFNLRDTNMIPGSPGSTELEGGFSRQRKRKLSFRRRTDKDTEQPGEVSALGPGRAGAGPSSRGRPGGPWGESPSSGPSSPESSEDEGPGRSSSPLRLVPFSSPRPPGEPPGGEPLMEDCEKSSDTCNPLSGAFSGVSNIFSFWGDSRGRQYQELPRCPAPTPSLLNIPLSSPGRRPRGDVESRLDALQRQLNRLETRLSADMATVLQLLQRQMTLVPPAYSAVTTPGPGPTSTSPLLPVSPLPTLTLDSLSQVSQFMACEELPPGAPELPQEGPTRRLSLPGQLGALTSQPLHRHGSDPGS

Point of comparison: `Cc1nn(C)c(C(=O)N/N=C/c2ccccc2)c1[N+](=O)[O-]`, “hERG current change (%, negative = inhibition) at 1uM” value 12.8%. Against it:
- COc1ccc(/C=C2/CCc3ccccc3C2=O)cc1OC — lower, -2.68%
- COc1ccc2cc(C(=O)N3CCCCCC3)sc(=O)c2c1OC — lower, 1.33%
- Cc1ccc(-c2nc(N)nc(N)n2)c(C)c1 — higher, 16.1%
- CCOc1cc(/C=C2\C(=O)NC(=O)N(CCc3ccc(F)cc3)C2=O)ccc1O — lower, -1.56%
- O=C(Cc1ccc(Cl)cc1Cl)NCc1cccnc1 — lower, 10.8%
- CC(C)CCNC(=O)c1onc(CSc2ccc(Cl)cc2)c1C(=O)NCCC(C)C — higher, 20.7%
- CC1CCCN(C2=NC(=O)/C(=C/c3cn(-c4ccccc4)nc3-c3cccc(S(=O)(=O)N(C)C)c3)S2)C1 (stereo not shown) — lower, -3.81%
- Cc1nn2cnc3sc4c(c3c2nc1=O)CCCC4 — lower, 6.71%
- COC(=O)Cc1c[nH]c2ccc(OCC(O)CNC(C)C)cc12.O=C(O)c1ccccc1 (stereo not shown) — lower, 8.25%
- C#CCCCCCCCCC(=O)NCCCC — lower, 6.09%
- Cc1nc2oc(C(=O)c3ccccc3)c(N)c2c2c1COC(C)(C)C2 — lower, 5.85%
- Cc1sc2ncnc(N3CCC(C(=O)Nc4nc(-c5ccc(F)cc5)cs4)CC3)c2c1C — lower, 10.9%
- CCCCN(C(=O)NC(=O)Nc1ccc(C)cn1)S(C)(=O)=O — higher, 16.5%
- Cn1nc(C(F)(F)F)c(/C=N/OC(=O)c2ccccc2)c1Sc1ccc(Cl)cc1 — lower, 12%
- CN(C)C(=O)CSc1n[nH]c(=O)[nH]c1=O — lower, 4.75%
- CCCc1cc(NCCCN(C)C)n2c(nc3ccccc32)c1C#N — lower, 12.7%
- O=C(CN(CCN1CCOCC1)C(=O)Cn1nnc(-c2ccc(F)cc2)n1)NC1CCCCC1 — lower, 1.7%
- CC(/C=N/NC(=O)CSc1nc2ccccc2n1C)=C\c1ccco1 — lower, 0.302%
- Cc1ccccc1CN1[C@@H](C(C)C)COCCS1(=O)=O — higher, 13.6%
- Cc1ccc(SCCC(=O)OCC(=O)NCC2CCCCC2)cc1 — lower, 7.43%
- Cc1ccc(C)c(S(=O)(=O)Nc2ccc(O)cc2)c1 — lower, 7.49%
- COc1ccccc1CCC(=O)OCC(=O)c1c(N)n(CC(C)C)c(=O)n(C)c1=O — lower, -8.42%
- CCOC(=O)c1cc(NC(=O)c2cccnc2)ccn1 — lower, 8.72%
- CCn1c2ccccc2c2cc(NC(=O)CNCC3CCCO3)ccc21.O=C(O)C(=O)O (stereo not shown) — lower, 9.64%
- CC1(C)CC(c2csc(N)n2)CCO1 (stereo not shown) — lower, 9.83%
- Cl.c1ccc(CNc2nc(NCc3ccccc3)c3ccccc3n2)cc1 — higher, 16.8%
- O=C(c1cccn2c(=O)c3cc(Cl)ccc3nc12)N1CCN(Cc2ccc3c(c2)OCO3)CC1 — lower, -33.5%
- CC(C)CC(COCc1ccc(Cl)cc1)N1CCN(C(=O)c2ccc(C(F)(F)F)cc2)CCC1=O (stereo not shown) — lower, -5.92%
- O=C(NC(=S)Nc1ccccc1N1CCOCC1)c1ccc(-c2ccccc2F)o1 — higher, 14.7%
- CC(C)(O)C#Cc1ccc(CN2CCN(Cc3ccccc3)C(CCO)C2)cc1 (stereo not shown) — lower, 12.1%
- Cc1ccccc1NC(=O)CSc1ccc(-c2cccnc2)nn1 — lower, 1.7%
- COc1ccc(NC(=O)C(NC(C)=O)C(=O)NCc2ccccc2)cc1 (stereo not shown) — lower, 7.92%
- COc1ccc(C(=O)Nc2ccc(-c3n[nH]c(=S)o3)cc2)cc1OC — higher, 16.8%
- COc1ccc(N(C)S(=O)(=O)c2c(C)[nH]c(=O)[nH]c2=O)cc1 — lower, -6.94%
- CCOC(=O)/C(=N\Nc1ccccc1[N+](=O)[O-])c1csc(Nc2ccccc2)n1 — higher, 13.2%
- CC(C(=O)Nc1nccs1)N1C(=O)c2ccccc2S1(=O)=O (stereo not shown) — lower, 7.64%
- CCc1nnc(NC(=O)CCc2nc(C3=CCN(C)CC3)no2)s1 — lower, 11.3%
- Cc1cccc(N2CCN(C(=S)NCCc3ccccc3)CC2)c1C — lower, 10.1%
- CCOC(=O)CNc1nc2ccccc2n2c(C)nnc12 — lower, 3.97%
- O=C(N/N=C/c1cccc(Oc2ccccc2)c1)c1cc[n+]([O-])cc1 — lower, -0.621%
- CCOC(=O)c1sc2ncn(C(CC)C(=O)OC)c(=O)c2c1C (stereo not shown) — lower, 11.5%
- COc1ccc(S(=O)(=O)N2CCCN(CC(=O)Nc3ccc(OC)c(Cl)c3)CC2)cc1 — lower, 7.89%
- COc1cc(NC(=S)NCCN2CCOCC2)cc(OC)c1 — lower, 5.31%
- COc1ccc(Cc2c(O)nc(SCC(=O)NC(C)(C)C)[nH]c2=O)cc1 — lower, 12.2%
- C=CCOc1ccc(CNc2ccc3[nH]c(=O)[nH]c3c2)cc1OCC — lower, 7.04%
- O=C(NCc1ccccc1)C(c1ccccc1)N(C(=O)c1csnn1)C1CCCC1 (stereo not shown) — lower, 8.62%
- CCOC(=O)N1CCN(C(=O)CSc2nnc(-c3cccs3)o2)CC1 — lower, 3.19%
- CC(C)(C)c1ccc(-c2n[nH]c(=S)n2/N=C/c2ccncc2)cc1 — lower, 12.7%
- CN1CCN(C(=S)NC(CC(=O)c2ccccc2)c2ccccc2)CC1 (stereo not shown) — lower, 8.1%
- C=C(C)COc1ccc(-c2nc(N)ncc2Oc2ccccc2OC)c(O)c1 — lower, 1.36%
- O=C(O)CCCn1cc(NC(=O)COc2ccc(F)cc2)cn1 — lower, 11%
- CN=C1S/C(=C/c2cn(CC(=O)OC)c3ccccc23)C(=O)N1C — lower, 10.2%
- Cc1ccc2c(c1)C=CC(C)(C)S2(=O)=O — higher, 17.1%
- Cc1cc(=O)oc2cc(OCC(=O)OCC(=O)Nc3ccc4ccccc4c3)ccc12 — lower, -6.93%
- COc1ccc(CC(=O)NNC(=O)c2nn(Cc3ccccc3)c(=O)c3ccccc23)cc1OC — lower, 11.7%
- Cc1noc(C)c1C(=O)Nc1cccc(S(=O)(=O)N2CCOCC2)c1 — lower, 6.56%
- CCCCc1ccc(-c2csc(/C(C#N)=C/c3ccco3)n2)cc1 — lower, -0.88%
- COc1cc(C(=O)O/N=C(\N)c2ccncc2)cc(OC)c1OC — lower, 2.58%
- COC(=O)C1CCCCN1C(=O)c1cccc(OC2CCN(C(=O)C3CC3)CC2)c1 (stereo not shown) — lower, 12.2%
- Clc1cccc(Cl)c1CN1CCN(c2ncccn2)CC1 — higher, 19.9%
- CCOc1ccccc1C(=O)Nc1nnc(COC)s1 — lower, 4.5%
- Cc1cc(C(=O)CN2C(=O)NC(c3ccccc3)(c3ccccc3)C2=O)c(C)n1Cc1ccccc1 — lower, -1.27%
- O=C(CNC(=O)c1cccs1)OCc1ccc(Br)cc1 — lower, 7.97%
- CNC(=O)C1CC(=O)N(Cc2ccc(OC)c(OC)c2)C(=Nc2ccc(OC)cc2)S1 (stereo not shown) — lower, 10%
- CC(C)N1C(=O)CCC1C(=O)N1CCN(c2ccc(F)cc2)CC1 (stereo not shown) — lower, 10.5%
- COc1ccc(CN(C(=O)c2cc(=O)c3ccccc3o2)C2CCS(=O)(=O)C2)cc1OC (stereo not shown) — lower, 10.9%
- CC(=O)c1sc(NC(=O)c2cccc(N3C(=O)CCC3=O)c2)nc1-c1ccccc1 — lower, 6.03%
- O=C(CCC(=O)c1cccs1)c1cccs1 — lower, 12.6%
- CCC(C)NC(=O)CSC1=Nc2ccccc2C2=NC(CCC(=O)NCc3ccco3)C(=O)N12 (stereo not shown) — lower, 9.53%
- N#Cc1cc2c(nc1SCC(=O)N1CCCCC1)CCCC2 — higher, 13.3%
- O=C1NC(=O)N(Cc2ccco2)C(=O)/C1=C\c1cccn1CCOc1ccc(Cl)cc1 — higher, 13.9%
- O=C(COC(=O)COc1ccccc1[N+](=O)[O-])Nc1cccc(Br)c1 — higher, 17.8%
- O=C(C1Cc2ccccc2CN1S(=O)(=O)c1cccs1)N1CCCCCC1 (stereo not shown) — lower, 11.7%
- Cn1c(=O)c2c(nc(N/N=C/c3ccc(OC(=O)c4ccco4)cc3)n2Cc2ccccc2)n(C)c1=O — lower, 2.03%
- COc1ccc(CNC(=O)COc2ccc(Br)c(C)c2)cc1 — lower, 6.54%
- Cc1ccc(NS(=O)(=O)c2ccc(C(=O)N3CCOCC3)cc2)cc1 — lower, 11.8%
- COc1ccccc1CNC(=O)OCc1nccnc1C(=O)Nc1ccc(Br)cn1 — lower, -7.05%
- Cc1ccc(NC(=O)Cn2c(=O)cnc3ccccc32)cc1S(=O)(=O)N(C)C — lower, -2.24%
- COc1ccc([C@H]2CC(=O)C=C(c3ccccc3OC)C2)cc1OC — lower, 10.7%
- Cc1sc(-c2ccncc2)nc1OC(=O)c1cc(Cl)cc(Cl)c1 — lower, 5.48%
- CC(C)N1CCC(N2CCN(C/C=C/c3ccccc3)CC2CCO)CC1 (stereo not shown) — lower, 12.2%
- COc1ccc(OC)c(NC(=O)CSc2nc(=O)n(Cc3ccccn3)c3c2CCC3)c1 — lower, -2.43%
- OCC1OC(n2nc3ccccc3n2)C(O)C(O)C1O (stereo not shown) — lower, 12%
- Cc1cc(C)n(CCCC(=O)O)n1 — higher, 17.7%
- Cc1ccc(C)c(NC(=O)CN(C)C(=O)c2ccc(S(=O)(=O)N3CCCCCC3)cc2)c1 — lower, 11.3%
- Cc1oc2ccc(OCc3ccc(Cl)cc3)cc2c1C(=O)O — lower, 10.4%
- COc1cc2c(cc1OC)C(C)N(S(=O)(=O)c1cn(C)c(C)n1)CC2 (stereo not shown) — lower, 10.4%
